Experimental data: publication PMC4336329 (PLoS ONE, 2015)
Screen size: about 310,000 compounds; about 14,000 (4.5%) showed an effect of 50% or more. Effects have a minus sign here. The list shows a part of the results.

molecular target: human ether-à-go-go-related gene (hERG) potassium channel (human, UniProt Q12809); experiment: primary screen, population patch clamp on CHO cells stably expressing hERG
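Further: peak tail current of the secondary pulse compared with the same well before compound.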

Chain of human ether-à-go-go-related gene (hERG) potassium channel (Q12809 whole entry, looked up): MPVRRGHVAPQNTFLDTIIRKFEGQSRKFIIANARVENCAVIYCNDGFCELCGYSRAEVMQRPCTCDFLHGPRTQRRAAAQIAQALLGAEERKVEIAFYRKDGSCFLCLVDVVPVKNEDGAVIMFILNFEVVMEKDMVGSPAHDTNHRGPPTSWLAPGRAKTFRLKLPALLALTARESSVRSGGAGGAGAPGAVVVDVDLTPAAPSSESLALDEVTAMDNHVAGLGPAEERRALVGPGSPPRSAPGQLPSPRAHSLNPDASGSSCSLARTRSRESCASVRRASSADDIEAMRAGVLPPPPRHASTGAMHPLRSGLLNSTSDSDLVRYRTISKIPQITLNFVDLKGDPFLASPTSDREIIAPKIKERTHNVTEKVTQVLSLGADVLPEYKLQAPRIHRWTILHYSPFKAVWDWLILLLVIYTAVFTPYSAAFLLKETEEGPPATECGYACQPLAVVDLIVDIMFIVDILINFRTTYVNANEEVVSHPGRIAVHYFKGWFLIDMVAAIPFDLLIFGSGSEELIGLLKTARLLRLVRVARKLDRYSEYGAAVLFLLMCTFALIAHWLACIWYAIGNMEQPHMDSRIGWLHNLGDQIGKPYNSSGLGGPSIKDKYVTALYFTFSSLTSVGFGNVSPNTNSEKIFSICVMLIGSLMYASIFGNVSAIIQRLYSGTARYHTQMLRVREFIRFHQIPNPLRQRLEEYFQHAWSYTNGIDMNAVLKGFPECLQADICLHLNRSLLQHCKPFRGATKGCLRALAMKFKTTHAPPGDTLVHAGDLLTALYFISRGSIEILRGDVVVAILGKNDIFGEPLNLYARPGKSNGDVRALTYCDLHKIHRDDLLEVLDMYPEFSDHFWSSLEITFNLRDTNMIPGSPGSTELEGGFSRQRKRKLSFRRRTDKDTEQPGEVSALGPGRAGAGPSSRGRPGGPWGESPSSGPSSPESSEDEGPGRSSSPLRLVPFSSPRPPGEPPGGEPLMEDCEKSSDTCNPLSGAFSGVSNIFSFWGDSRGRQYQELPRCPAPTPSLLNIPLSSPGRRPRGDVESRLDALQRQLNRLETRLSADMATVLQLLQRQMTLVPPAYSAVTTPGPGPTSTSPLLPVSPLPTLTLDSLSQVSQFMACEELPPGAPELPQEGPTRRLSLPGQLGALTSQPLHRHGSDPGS

Point of comparison: `Cc1nn(CCOc2ccc(Br)cc2)c(C)c1[N+](=O)[O-]`, “hERG current change (%, negative = inhibition) at 10uM” value 6.79%. Against it:
- CN1c2ccccc2C(C)(C)C12C=Cc1cc(O)ccc1O2 (centres unmarked) — lower, -5.61%
- CCN(CC)c1nc2c(s1)C(=O)CC(C)(C)C2 — lower, 0.00258%
- Cc1ccc(NC2=NCC(=O)N2Cc2cccs2)cc1C.Cl — lower, -43.8%
- CN(c1ccccc1)S(=O)(=O)c1ccc(C(=O)NNC(=O)c2ccccc2F)cc1 — lower, -0.373%
- Cc1c(-c2ccccc2)nc2ccccc2c1C(=O)Nc1ccncc1 — lower, -40.9%
- O=C(/C=N/O)Nc1ccc2sc3ccccc3c2c1 — higher, 15.3%
- CCOC(=O)Cc1csc(NC(=O)COc2c(C)cccc2C)n1 — higher, 23.6%
- CC1CCN(c2cc(=O)n(C3CCCCC3)c(=O)[nH]2)CC1 — lower, 6.69%
- CCOC(=O)C1=C(COC(=O)COc2ccc(C(=O)CC)cc2)NC(=O)NC1C (centres unmarked) — lower, -25.5%
- Cc1csc(NC(=O)c2cccc(Cn3nc(C)c(Br)c3C)c2)n1 — lower, -8.88%
- Cc1cccc(N=C2NC(=O)/C(=C/C=C/c3ccco3)S2)c1C — higher, 12.9%
- Cc1nc(NC(=O)C(C)Oc2cccc(Cl)c2)sc1C(=O)N(C)C (centres unmarked) — higher, 7.22%
- Cc1nnc(-c2ccccc2)nc1N1CCOCC1 — lower, -10.2%
- COc1cc(C2C3=C(CCCC3=O)Nc3[nH]n(-c4ccccc4)c(=O)c32)cc(OC)c1OC (centres unmarked) — higher, 13.6%
- COc1cccc(N2CCN(CC(=O)Nc3nc4c(s3)CC(C)CC4)CC2)c1 (centres unmarked) — lower, -16.7%
- CNS(=O)(=O)c1cccc(C(=O)OCC(=O)c2ccc[nH]2)c1 — lower, 5.56%
- c1cncc(-c2nc(-c3ccc4c(c3)OCCO4)cs2)c1 — lower, -4.72%
- c1ccc2[nH]c(CSc3nnc(-c4ccncc4)o3)nc2c1 — lower, -24.8%
- O=C(N=C1SCC(=O)N1c1ccccc1Cl)c1ccco1 — higher, 12.5%
- C=CCNC(=O)c1ccc(CNS(=O)(=O)c2ccc(NC(C)=O)cc2)cc1 — higher, 8.09%
- COc1ccc(C(=O)N2c3ccccc3C(=O)OC2c2ccc3c(c2)OCO3)cc1 (centres unmarked) — lower, -2.15%
- c1ccc(Cn2nnc3c(NCC4CCCO4)nc(C4CC4)nc32)cc1 (centres unmarked) — lower, 0.775%
- O=C(CCc1nc2ccccc2c(=O)[nH]1)Nc1nnc(SCc2ccccc2)s1 — lower, -12.3%
- COCCN(C(=O)c1sc2ccccc2c1Cl)c1c(N)n(CC(C)C)c(=O)[nH]c1=O — lower, 0.256%
- C=CCc1ccc(OCC(O)COc2ccc(CC=C)cc2OC)c(OC)c1 — lower, -24.5%
- COc1cc(CC(=O)O)c(C(C)=O)cc1OC — higher, 16.9%
- Nc1ccc(-c2nc3ncccc3o2)cc1 — higher, 16.5%
- Cc1[nH]nc2c1C(=O)CCC2 — higher, 12.4%
- CCN(CC)CCCn1c2c(c(SCC(=O)N3CCCc4ccccc43)nc1=O)CCC2 — lower, -22.9%
- CC(C)c1ccc2oc(-c3ccc(NC(=O)c4ncn[nH]4)cc3)nc2c1 — lower, 3.11%
- COc1ccc(-c2c(C(F)(F)F)nn(C)c2NC(=O)c2cccnc2)cc1 — lower, 2.41%
- COc1ccc(-n2nc(C(=O)NCC(=O)N3CCN(c4ccccc4F)CC3)c3ccccc3c2=O)cc1 — lower, 0.081%
- c1ccc(-n2nnc(-c3nccs3)n2)cc1 — higher, 7.76%
- Cc1cccc(NC(=O)Cn2c(=O)n(CCC(=O)NC3CCCC3)c(=O)c3ccccc32)c1 — higher, 12.1%
- N#CC(c1ccccc1)c1ccc(=O)[nH]n1 (centres unmarked) — higher, 19.6%
- NNC(=O)c1ccc(COc2cccc3ccccc23)cc1 — higher, 7.75%
- Cc1cccc(C(=O)NCC(=O)OC(C)C(=O)Nc2ccc(Cl)cn2)c1 (centres unmarked) — lower, -9.14%
- CN(C(=O)CCNC(=O)Cn1cnc2ccccc2c1=O)c1ccc(Br)cc1 — lower, 2.74%
- COc1ccc(OCc2nnc(SCC(N)=O)n2N)cc1 — higher, 15.5%
- CCOc1ccccc1N(C)S(=O)(=O)c1ccc2c(c1)CC(C)N2C(=O)C1CC1 (centres unmarked) — higher, 9.49%
- Cc1ccc(NC(=O)CN(C)C(=O)C(C)N2CCN(Cc3ccccc3C)CC2)cc1 (centres unmarked) — lower, -26.6%
- COc1ccc(-c2cc(N)n(S(=O)(=O)c3ccc(F)cc3)n2)cc1OC — higher, 21.1%
- CCC(C(=O)NCCCN1CCOCC1)n1c2ccccc2c2nc(=O)cc(C)n21 (centres unmarked) — lower, 4.94%
- O=C(NC1CCCC1)c1ccc(Cn2c(=O)[nH]c3ccsc3c2=O)cc1 — lower, -3.16%
- O=C(N/N=C/c1ccco1)c1ccc(NC(=O)c2ccc(Cl)cc2)cc1 — higher, 18.7%
- COc1ccc(-c2cc(=O)oc3c(C)c(OC(=O)c4cccs4)ccc23)cc1 — higher, 9.83%
- CC(C)CN(C(=O)COC(=O)c1ccc2c(c1)OCCO2)c1c(N)n(Cc2ccccc2)c(=O)[nH]c1=O — lower, 5.66%
- CCN1CCN(C(=O)C2CCN(C(=O)c3cc4sccc4n3CC)CC2)CC1 — lower, -2.39%
- O=c1c2c3c(sc2[nH]c(=S)n1Cc1ccco1)CCC3 — lower, 6.17%
- CNC(=S)N1N=C(c2ccc(C)cc2)CC1c1ccc(N(C)C)cc1 (centres unmarked) — higher, 11.8%
- O=C(CSc1ccc(Cl)cc1)NNC(=O)c1cccnc1 — lower, -21%
- O=C1C=C(c2cccc3c2oc2ccccc23)C[C@@H](c2ccc(F)cc2)C1 — lower, -7.14%
- Cc1ccc(Cn2nc(C)c(NC(=O)c3cc(-c4ccco4)on3)c2C)cc1 — lower, -0.924%
- Fc1ccc(-n2cc(CNCCc3cccnc3)c(-c3ccccc3Cl)n2)cc1 — lower, -51.9%
- CCCCn1c(N)c(N(CCC(C)C)C(=O)c2cc(Cl)nc3ccccc23)c(=O)[nH]c1=O — higher, 15.2%
